Test results reported in the supplement of paper PMC9446081.
Hit rate of the full screen: of about 39,000 compounds, about 220 (0.56%) showed activity. The list shows a part of the results.

System: Escherichia coli K-12 BW25113
Assay: relative growth (OD600 normalised to plate interquartile mean) (fraction); higher = less growth inhibition, active = 0.2 or less
Details: 50 µM; LB; incubation time: overnight (16-24 h)
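Further: static incubation at 37 °C against the wild-type strain, values averaged over two biological replicates.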

Question: Which relative growth does the source give for `O=C(C[C@H]1CC[C@H]2[C@@H](COC[C@H](O)CN2C(=O)c2cccnc2)O1)NCC1CC1` here?
Answer: inactive: 1.01

Question: `Cc1noc(C)c1S(=O)(=O)Nc1ccc2c(c1)CC(=O)N([C@@H](C)CO)C[C@H](C)[C@H](CN(C)S(=O)(=O)c1ccccc1)O2` was tested. Which relative growth did it give?
Answer: inactive: 0.97

Question: For `CCCNC(=O)NS(=O)(=O)c1ccc(Cl)cc1`, which relative growth is on record?
Answer: inactive: 1.01

Question: With `Cn1c(=O)n(C)c2cc(CN)ccc21` as the compound, how does the relative growth read?
Answer: inactive: 1

Question: How did the relative growth turn out when `CCCN(C)C[C@H]1Oc2cc(C#Cc3cccc(OC)c3)ccc2S(=O)(=O)N([C@H](C)CO)C[C@H]1C` was run?
Answer: inactive: 1.01

Question: How did the relative growth turn out when `Cc1ccc(S(=O)(=O)N(C)C[C@@H]2Oc3c(NC(=O)Nc4ccc(C(F)(F)F)cc4)cccc3C(=O)N([C@H](C)CO)C[C@H]2C)cc1` was run?
Answer: inactive: 0.761

Question: How did the relative growth turn out when `C[C@H](CO)N1C[C@H](C)[C@H](CN(C)Cc2ccc(Cl)c(Cl)c2)OCCCC[C@H](C)Oc2ccc(NC(=O)Nc3ccc(C(F)(F)F)cc3)cc2C1=O` was run?
Answer: inactive: 1.08

Question: How did the relative growth turn out when `C[C@@H]1CN([C@@H](C)CO)C(=O)c2cc(C#CC3(O)CCCC3)cnc2O[C@H]1CN(C)C(=O)C1CCCCC1` was run?
Answer: inactive: 0.975

Question: With `Cc1ccc(S(=O)(=O)Nc2cccc3c2O[C@H](CN(C)CC2CC2)[C@H](C)CN([C@@H](C)CO)C3=O)cc1` as the compound, how does the relative growth read?
Answer: inactive: 1

Question: `Cc1ccc(S(=O)(=O)Nc2cccc3c2O[C@H](CN(C)Cc2ccc(Cl)c(Cl)c2)[C@H](C)CN([C@H](C)CO)C3=O)cc1` was tested. Which relative growth did it give?
Answer: inactive: 0.986

Question: Which relative growth does the source give for `C[C@H](O)C#Cc1ccc2c(c1)O[C@H](CN(C)C(=O)C1CCCCC1)[C@@H](C)CN([C@@H](C)CO)S2(=O)=O` here?
Answer: inactive: 0.977

Question: For `Cc1ccc(S(=O)(=O)N[C@@H]2CC[C@H](CC(=O)N3CCC(Cc4ccccc4)CC3)O[C@@H]2CO)cc1`, which relative growth is on record?
Answer: inactive: 0.871

Question: Which relative growth does the source give for `C[C@@H]1CCCCO[C@@H](CN(C)C(=O)Nc2ccccc2)[C@@H](C)CN([C@H](C)CO)C(=O)c2cc(NC(=O)Nc3ccc(C(F)(F)F)cc3)ccc2O1` here?
Answer: inactive: 1.02

Question: With `Nc1ccccc1Nc1ccccc1` as the compound, how does the relative growth read?
Answer: inactive: 0.974

Question: For `COc1ccc(CN(C)C[C@@H]2OCCCC[C@@H](C)Oc3ccc(NC(=O)c4ccccc4)cc3C(=O)N([C@H](C)CO)C[C@@H]2C)cc1`, which relative growth is on record?
Answer: inactive: 0.989

Question: `C[C@H](CO)N1C[C@H](C)[C@@H](CN(C)C(=O)Nc2ccc(F)cc2)Oc2c(NC(=O)c3ccc(-c4nccs4)cc3)cccc2C1=O` was tested. Which relative growth did it give?
Answer: inactive: 0.982

Question: How did the relative growth turn out when `C[C@H]1CN([C@@H](C)CO)S(=O)(=O)c2ccc(C#Cc3ccc(F)cc3)cc2O[C@@H]1CN(C)C(=O)c1ccccn1` was run?
Answer: inactive: 1.03

Question: How did the relative growth turn out when `COc1ccnc(C#N)c1` was run?
Answer: inactive: 0.994

Question: `O=C(C[C@H]1CC[C@H](NC(=O)c2cccnc2)[C@H](CO)O1)NCCN1CCCCC1` was tested. Which relative growth did it give?
Answer: inactive: 1.04

Question: With `Cc1ccc(S(=O)(=O)N(C)C[C@@H]2OCCCC[C@H](C)Oc3ccc(NC(=O)Nc4ccc(F)cc4)cc3C(=O)N([C@H](C)CO)C[C@H]2C)cc1` as the compound, how does the relative growth read?
Answer: inactive: 0.983

Question: `C[C@H]1CN([C@@H](C)CO)C(=O)c2cc(NC(=O)Cn3cnnn3)ccc2O[C@@H]1CN(C)Cc1ccc(C(F)(F)F)cc1` was tested. Which relative growth did it give?
Answer: inactive: 0.975

Question: Which relative growth does the source give for `O=C(C[C@H]1CC[C@H]2[C@@H](COC[C@H](O)CN2S(=O)(=O)c2ccccc2)O1)NCCN1CCCC1` here?
Answer: inactive: 0.996

Question: With `Cc1noc(C)c1S(=O)(=O)Nc1ccc2c(c1)C(=O)N([C@H](C)CO)C[C@@H](C)[C@@H](CN(C)CC1CCCCC1)OCCCC[C@H](C)O2` as the compound, how does the relative growth read?
Answer: inactive: 1.01

Question: With `Cc1noc(C)c1S(=O)(=O)Nc1ccc2c(c1)C(=O)N([C@@H](C)CO)C[C@@H](C)[C@H](CN(C)Cc1ccccc1)OCCCC[C@@H](C)O2` as the compound, how does the relative growth read?
Answer: inactive: 1.01

Question: How did the relative growth turn out when `COCCOC(=O)N1C(=O)[C@@]2(c3cc(C#CCCO)ccc31)[C@H](c1ccccc1OCCO)N1[C@H](c3ccccc3)[C@H](c3ccccc3)OC(=O)[C@H]1[C@@H]2C(=O)N1CCc2cc(OC)c(OC)cc2C1` was run?
Answer: inactive: 1.03

Question: Which relative growth does the source give for `COc1ccccc1S(=O)(=O)N(C)C[C@H]1OCc2cnnn2CCCC(=O)N([C@H](C)CO)C[C@H]1C` here?
Answer: inactive: 0.995

Question: `C[C@H](CO)N1C[C@H](C)[C@H](CN(C)C(=O)C2CCCCC2)Oc2cc(Br)ccc2S1(=O)=O` was tested. Which relative growth did it give?
Answer: inactive: 1

Question: For `Cc1noc(C)c1NC(=O)Nc1ccc2c(c1)C(=O)N([C@@H](C)CO)C[C@@H](C)[C@H](CN(C)C(=O)Nc1ccc(F)cc1)OCCCC[C@@H](C)O2`, which relative growth is on record?
Answer: inactive: 1.02

Question: For `C[C@H](O)C#Cc1ccc2c(c1)O[C@H](CN(C)C)[C@H](C)CN([C@@H](C)CO)S2(=O)=O`, which relative growth is on record?
Answer: inactive: 0.972

Question: Which relative growth does the source give for `O=C(NCc1ccccn1)C1CCNCC1` here?
Answer: inactive: 1.02

Question: How did the relative growth turn out when `COC(=O)[C@@H](NC(=O)Cn1cc(C(=O)NO)nn1)c1ccccc1` was run?
Answer: inactive: 1.04

Question: `C[C@@H](CN1CCCCC1)C(=O)NN` was tested. Which relative growth did it give?
Answer: inactive: 0.996

Question: For `COCC(=O)N1CC(=O)N2[C@H](C1)[C@@H](c1ccc(C#Cc3cccnc3)cc1)[C@@H]2CO`, which relative growth is on record?
Answer: inactive: 1.02

Question: With `C[C@@H]1CN([C@@H](C)CO)C(=O)Cc2cc(NC(=O)c3ccncc3)ccc2O[C@@H]1CN(C)C(=O)NC1CCCCC1` as the compound, how does the relative growth read?
Answer: inactive: 0.958

Question: For `C[C@@H]1CN([C@@H](C)CO)C(=O)c2cc(NC(=O)Nc3ccccc3)ccc2O[C@@H]1CN(C)S(C)(=O)=O`, which relative growth is on record?
Answer: inactive: 0.999

Question: For `COc1ccc(NC(=O)Nc2cccc3c2O[C@@H](CN(C)Cc2ccc(C(=O)Nc4ccccc4N)cc2)[C@@H](C)CN([C@@H](C)CO)C3=O)cc1`, which relative growth is on record?
Answer: inactive: 1.01

Question: With `COC(=O)C1=C2CC[C@H](CO)NC(=O)N[C@H](Cc3ccccc3)C(=O)NCc3cn(nn3)C[C@@H](Cc3ccccc3)NC(=O)c3oc(c(C(=O)OC)c3C(=O)OC)CC[C@H](CO)NC(=O)N[C@H](Cc3ccccc3)C(=O)NCc3cn(nn3)C[C@@H](Cc3ccccc3)NC(=O)C(=C1C(=O)OC)O2` as the compound, how does the relative growth read?
Answer: inactive: 0.976

Question: How did the relative growth turn out when `COc1ccc(NC(=O)Nc2ccc3c(c2)C(=O)N([C@@H](C)CO)C[C@@H](C)[C@H](CN(C)C(=O)C2CCCCC2)OCCCC[C@@H](C)O3)cc1` was run?
Answer: inactive: 1.02
